# Among all 310,000 compounds or so, about 14,000 (4.5%) showed an effect of 50% or more. The effect is printed as a negative number. This is one part of the list.
# Target: human ether-à-go-go-related gene (hERG) potassium channel (human, UniProt Q12809)
# Assay: primary screen, population patch clamp on CHO cells stably expressing hERG
# 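Further: peak tail current of the secondary pulse compared with the same well before compound.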
# human ether-à-go-go-related gene (hERG) potassium channel, sequence (Q12809 whole entry, looked up): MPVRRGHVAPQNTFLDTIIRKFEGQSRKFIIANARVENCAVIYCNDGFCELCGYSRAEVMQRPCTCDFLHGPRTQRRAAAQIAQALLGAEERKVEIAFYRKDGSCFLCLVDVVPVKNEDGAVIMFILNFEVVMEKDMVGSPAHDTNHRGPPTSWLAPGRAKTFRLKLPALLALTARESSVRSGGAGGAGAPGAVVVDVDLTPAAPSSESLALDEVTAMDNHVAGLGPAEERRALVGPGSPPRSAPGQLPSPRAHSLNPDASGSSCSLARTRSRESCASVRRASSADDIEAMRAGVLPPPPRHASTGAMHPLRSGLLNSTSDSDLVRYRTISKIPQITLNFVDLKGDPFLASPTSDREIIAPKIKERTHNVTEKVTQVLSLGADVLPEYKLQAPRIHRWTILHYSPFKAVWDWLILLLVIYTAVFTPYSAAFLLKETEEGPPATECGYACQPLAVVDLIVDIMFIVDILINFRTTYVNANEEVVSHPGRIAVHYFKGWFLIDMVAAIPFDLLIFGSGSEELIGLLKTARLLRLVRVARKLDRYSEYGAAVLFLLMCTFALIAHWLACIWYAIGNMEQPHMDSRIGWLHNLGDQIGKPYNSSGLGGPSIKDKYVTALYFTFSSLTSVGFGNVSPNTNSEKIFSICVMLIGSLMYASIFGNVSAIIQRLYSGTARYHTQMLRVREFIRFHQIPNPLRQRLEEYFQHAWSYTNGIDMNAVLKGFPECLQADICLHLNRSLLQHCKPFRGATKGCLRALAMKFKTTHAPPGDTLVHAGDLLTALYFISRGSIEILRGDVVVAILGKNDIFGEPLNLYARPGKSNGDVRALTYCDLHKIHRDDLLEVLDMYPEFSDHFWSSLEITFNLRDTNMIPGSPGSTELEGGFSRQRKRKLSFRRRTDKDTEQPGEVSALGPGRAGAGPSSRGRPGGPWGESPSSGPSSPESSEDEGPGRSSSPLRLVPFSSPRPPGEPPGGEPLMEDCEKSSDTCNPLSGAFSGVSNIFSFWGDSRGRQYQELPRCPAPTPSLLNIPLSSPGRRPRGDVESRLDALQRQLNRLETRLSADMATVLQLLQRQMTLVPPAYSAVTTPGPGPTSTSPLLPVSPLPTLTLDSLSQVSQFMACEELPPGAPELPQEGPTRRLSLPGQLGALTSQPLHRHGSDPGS
row,SMILES,"hERG current change (%, negative = inhibition) at 10uM [%]"
1,O=C(CCc1nnc(CCCCc2ccccc2)o1)N1CCC(N2CCCC2)CC1,-0.932
2,COc1cc2ccccc2cc1C(=O)OCC(=O)c1c(N)n(C)c(=O)n(C)c1=O,-28.4
3,COc1ccc(NC(=O)CCC(=O)c2ccc(C(C)C)cc2)cc1,27.7
4,Cc1n[nH]c(C)c1CCN(C)Cc1cn(C)nc1-c1ccccc1F,12.3
5,O=C1C=C(c2cnc3ccccc3c2)C[C@@H](c2ccc3c(c2)OCO3)C1,-1.3
6,Cc1cc(C)c2[nH]c(C(=O)Nc3ccc(F)cc3Br)cc2c1,13.4
7,CC(C)(C)[C@H]1C=C(C(N)=O)O[C@@H](OCCCCO)C1,4.84
8,CCCCn1c(N)c(N(CCOC)C(=O)CCCc2nc3ccccc3s2)c(=O)[nH]c1=O,6.21
9,O=C(Nc1ccnn1C1CCN(Cc2ccccc2F)CC1)C1CCCC1,-45.4
10,CC(=O)c1ccc(NC(=O)CN2C(=O)COc3ccc(Cl)cc32)cc1,1.8
11,O=C(CCn1cccc1)Nc1nccs1,-0.358
12,C[C@@H](C(=O)NCCc1ccccc1F)N1C(=O)N2CCc3c([nH]c4ccccc34)[C@@]2(C)C1=O,-27.2
13,Cc1ccc(NC(=O)CCC(=O)c2cc(C)sc2C)nc1,-19.3
14,Cc1ccccc1NC(=S)N(CCN1CCCCCC1)Cc1cccs1,-39.5
15,O=C(CCCC(=O)NNC(=O)Nc1ccccc1)NNC(=O)Nc1ccccc1,22.9
16,Cc1ccc(CN2CCC(CO)(CC3CCCCO3)CC2)o1 (stereo not drawn),10.6
17,CC(=O)N1CCC(=NNC(=O)c2cc3ccccc3cc2O)CC1,16.8
18,CC1CN(C(=O)Cn2c(=O)oc3ccccc32)CC(C)O1 (stereo not drawn),23
19,O=C(NC1CCCC1)c1cnn2c(C(F)(F)F)cc(-c3ccco3)nc12,-42.2
20,O=Cc1ccc(OCc2ccc3ccccc3c2)cc1,21.5
21,CCOC(=O)c1c(NC(=O)CN2C(=O)NC3(CCCCC3C)C2=O)sc(C)c1C (stereo not drawn),10.4
22,O=C(COC(=O)CCc1ccccc1)NC1CCS(=O)(=O)C1 (stereo not drawn),13.1
23,COCCn1nnnc1C(c1ccc(OC)cc1OC)N1CCN(c2ccccc2)CC1 (stereo not drawn),-70.8

row,SMILES,"hERG current change (%, negative = inhibition) at 10uM [%]"
1,CCOc1ccc2nc(-c3ccccc3)[nH]c2c1,4.83
2,O=C(O)C1=C[C@@H](c2ccc3c(c2)OCO3)C[C@@H](OCCCCO)O1,20.5
3,Cc1cccc(-c2cc(C(=O)N3CCCc4ccccc43)c3ccccc3n2)c1,8.75
4,CCOC(=O)c1ccccc1NS(=O)(=O)c1ccccc1F,9.96
5,CC(C)(C)C(=O)c1sc(Nc2ccccc2)nc1N,-8.92
6,CCn1ccc(C(=O)Oc2ccc(C(C)C)cc2)n1,-4.72
7,COc1cccc(Nc2ncnc3ccccc23)c1.Cl,2.97
8,CN(C)C(=O)Oc1cccc(-c2cn3cc(Cl)ccc3n2)c1,-9.64
9,COc1cc(OC)c(NC(=O)c2cc(S(=O)(=O)N3CCOCC3)cn2C)cc1Cl,-5.85
10,O=C(COC(=O)c1ccc(S(=O)(=O)NCc2ccco2)cc1)Nc1ccc(OC(F)F)cc1,-9.32
11,Cc1ccc(-c2nnc(N(C)C(=O)c3cccnc3)s2)cn1,19
12,CCn1ncc(NC(=O)Nc2cccc(C(F)(F)F)c2)c1C(N)=O,1.77
13,COC(=O)c1cc(S(=O)(=O)NCc2ccc3c(c2)OCO3)cn1C,-0.484
14,CCOC(=O)N1CCN(S(=O)(=O)N2CCCC(C(=O)NCCc3ccc(Cl)cc3)C2)CC1 (stereo not drawn),-36.2
15,NS(=O)(=O)c1ccc(CCNC(=O)CN2CCN(c3ccc(F)cc3)CC2)cc1,-18.7
16,Cc1cc(NC(=O)/C=C/c2ccccc2Cl)n(-c2nc3ccccc3[nH]2)n1,19.8
17,CCOC(=O)C1CCN(c2nc(-c3ccc(Br)cc3)nc3ccccc23)CC1,-1.89
18,O=c1[nH]nc(-c2ccc(F)cc2)cc1Cc1ccccc1,3.89
19,Cc1ccc(C(=O)N/N=C(\CC(C)C)c2ccccc2)cc1,-36.1
20,Cc1cc(/C=C2\C(=O)NC(=O)N(c3ccc(Cl)cc3)C2=O)c(C)n1-c1sc2c(c1C#N)CCCC2,12.4
21,CCc1ccc2nc(SCC(=O)N3CC(=O)Nc4ccccc43)c(C#N)cc2c1,2.85
22,COc1ccc(Nc2cc(C(=O)NCc3ccco3)c3ccccc3n2)cc1,-0.014

# Source: publication PMC4336329 (PLoS ONE, 2015)
